Measurements as given in the supplement of paper PMC10498489.
Hit rate of the full screen: of about 2,300 compounds, about 330 (14%) showed activity.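 Rule for the calls: active = median modified Z-score above 1.96; inactive = 1.96 or below.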 The list shows a part of the results, in another mix than the full data.

System: HepG2 Srxn1-GFP reporter cells (+30 nM CDDO-Me)
Experiment: Srxn1-GFP intensity median modified Z-score relative to plate median; higher = stronger NRF2 / oxidative stress reporter activation, active = hit call of the paper
Conditions: 10 µM; exposure time: 24h
Summary of the method: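 The per-plate modified Z-score of GFP intensity, taken as a median across replicates, is what each value represents. Three replicate plates of HepG2 Srxn1-GFP BAC reporter cells were exposed for 24 h to an NRF2 activator at 30 nM combined with compound at 10 μM (≤0.1% DMSO). Cytoplasmic GFP per cell was read from confocal images, excluding any with under 100 cells, and scaling used 1.4826 × median absolute deviation.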

Row | Compound | Srxn1-GFP intensity median modified Z-score
1 | C[C@H]1COc2c(C3(N)CC3)c(F)cc3c(=O)c(C(=O)O)cn1c23 [euspeclibcmpd1086] | inactive: 0.373
2 | CC(=O)Nc1ccccc1 [euspeclibcmpd1065] | inactive: -0.0812
3 | CC(C)(C(=O)O)c1ccc(C(O)CCCN2CCC(C(O)(c3ccccc3)c3ccccc3)CC2)cc1 (configuration not stated) [euspeclibcmpd659] | inactive: -0.123
4 | COc1c2ccoc2c(OC)c2oc(=O)ccc12 [euspeclibcmpd1722] | inactive: -0.26
5 | CN1C(C)(C)CCCC1(C)C [euspeclibcmpd1138] | inactive: -0.0632
6 | CC(CCc1ccccc1)NCC(O)c1ccc(O)c(C(N)=O)c1 (configuration not stated) [euspeclibcmpd553] | inactive: 0.0442
7 | Cc1oncc1C(=O)Nc1ccc(C(F)(F)F)cc1 [euspeclibcmpd636] | inactive: 1.63
8 | CC1CC(OC(=O)C(O)c2ccccc2)CC(C)(C)C1 (configuration not stated) [euspeclibcmpd1173] | inactive: -0.157
9 | CCCCCCCCCc1ccc(OCCOCCOCCOCCOCCOCCOCCOCCOCCO)cc1 [euspeclibcmpd736] | active: 18.5
10 | COc1c(-c2coc3cc4c(cc3c2=O)CC(OC(C)=O)C(C)(C)O4)ccc2c1C=CC(C)(C)O2 (configuration not stated) [euspeclibcmpd1654] | active: 13.6
11 | Cc1cc2c(cc1S(N)(=O)=O)S(=O)(=O)CCC2 [euspeclibcmpd1275] | inactive: -0.173
12 | CC(=O)NCCc1ccc(O)c(C2C(=O)C(=O)c3c(c(O)c4c(C(=O)O)c(C(=O)O)c(O)cc4c3O)C2=O)c1 (configuration not stated) [euspeclibcmpd1580] | inactive: -0.208
13 | OCCOCCN1CCN(C2=Nc3ccccc3Sc3ccccc32)CC1 [euspeclibcmpd710] | inactive: 0.638
14 | Oc1oc(O)c2c1C1CCC2O1 [euspeclibcmpd1748] | active: 3
15 | Cc1ccc2c(Br)cc(Br)c(OC(=O)c3ccccc3)c2n1 [euspeclibcmpd2181] | active: 2.44
16 | Cc1ccc(Nc2c(F)cccc2Cl)c(CC(=O)O)c1 [euspeclibcmpd498] | inactive: 1.17
17 | Fc1ccc(C(c2ccc(F)cc2)N2CCN(C/C=C/c3ccccc3)CC2)cc1 [euspeclibcmpd360] | inactive: -0.527
18 | COc1ccc2oc(-c3ccccc3OC)cc(=O)c2c1 [euspeclibcmpd1670] | active: 3.62
19 | COc1ccc2oc(-c3ccccc3OC)cc(=O)c2c1 | inactive: 0.553
20 | N=C(N)c1ccc(OCCCCCOc2ccc(C(=N)N)cc2)cc1 [euspeclibcmpd1040] | active: 12.5
21 | c1ccc2c(Cc3c[nH]c4ccccc34)c[nH]c2c1 [euspeclibcmpd2024] | active: 18.3
22 | CCCc1cc(=O)[nH]c(=S)[nH]1 [euspeclibcmpd255] | inactive: -0.449
23 | COc1ccc(CCN(C)CCCC(C#N)(c2ccc(OC)c(OC)c2)C(C)C)cc1OC (configuration not stated) [euspeclibcmpd958] | active: 5.38
24 | Cc1c(NS(=O)(=O)C(C)C)c(=O)n(-c2ccccc2)n1C | inactive: 1.19
25 | CNCCCC1c2ccccc2C=Cc2ccccc21 [euspeclibcmpd899] | inactive: -0.742
26 | COC(=O)C1OC(=O)C2OC23[C@@]1(C)CCC1[C@]2(C)C(C[C@@H](O)[C@]13C)C(C)(C)[C@H](OC(C)=O)C[C@@H]2OC(C)=O (some centres not stated) [euspeclibcmpd2102] | inactive: -0.135
27 | CC(=O)C1CCC2C3CC(C)=C4CC(=O)CC[C@]4(C)C3[C@@H](O)C[C@]12C (some centres not stated) [euspeclibcmpd179] | inactive: -0.562
